{
  "source": "paper PMC9911399",
  "about": "“Two distinct binding modes provide the RNA-binding protein RbFox with extraordinary sequence specificity”",
  "binders": {"B1": {"name": "GCCUCCA (DNA:RNA)", "RNA": "GGGAGACCGGAAUUCAGAUUGUCCGCCUCCAUUAAAUCCCGUCGUAGCCACCA", "DNA 1": "CAATCTGAATTCCGGTCTCCC", "DNA 2": "TGGTGGCTACGACGGGATT"}, "B2": {"name": "UGUCGAG (DNA:RNA)", "RNA": "GGGAGACCGGAAUUCAGAUUGUCCUGUCGAGUUAAAUCCCGUCGUAGCCACCA", "DNA 1": "CAATCTGAATTCCGGTCTCCC", "DNA 2": "TGGTGGCTACGACGGGATT"}, "B3": {"name": "ACCACUG (DNA:RNA)", "RNA": "B1 RNA with G25A, U28A, C30U, A31G", "DNA 1": "CAATCTGAATTCCGGTCTCCC", "DNA 2": "TGGTGGCTACGACGGGATT"}, "B4": {"name": "ACGUCGU (DNA:RNA)", "RNA": "B1 RNA with G25A, C27G, C30G, A31U", "DNA 1": "CAATCTGAATTCCGGTCTCCC", "DNA 2": "TGGTGGCTACGACGGGATT"}, "B5": {"name": "ACGUCAG (DNA:RNA)", "RNA": "B1 RNA with G25A, C27G, C30A, A31G", "DNA 1": "CAATCTGAATTCCGGTCTCCC", "DNA 2": "TGGTGGCTACGACGGGATT"}, "B6": {"name": "AGGUGUC (DNA:RNA)", "RNA": "B2 RNA with U25A, U27G, C28U, A30U, G31C", "DNA 1": "CAATCTGAATTCCGGTCTCCC", "DNA 2": "TGGTGGCTACGACGGGATT"}, "B7": {"name": "UUUGUCG (DNA:RNA)", "RNA": "B2 RNA with G26U, C28G, G29U, A30C", "DNA 1": "CAATCTGAATTCCGGTCTCCC", "DNA 2": "TGGTGGCTACGACGGGATT"}, "B8": {"name": "AAAGCUG (DNA:RNA)", "RNA": "B1 RNA with G25A, C26A, C27A, U28G, C30U, A31G", "DNA 1": "CAATCTGAATTCCGGTCTCCC", "DNA 2": "TGGTGGCTACGACGGGATT"}, "B9": {"name": "CCUUCAA (DNA:RNA)", "RNA": "B1 RNA with G25C, C27U, C30A", "DNA 1": "CAATCTGAATTCCGGTCTCCC", "DNA 2": "TGGTGGCTACGACGGGATT"}, "B10": {"name": "AUGCAGA (DNA:RNA)", "RNA": "B1 RNA with G25A, C26U, C27G, U28C, C29A, C30G", "DNA 1": "CAATCTGAATTCCGGTCTCCC", "DNA 2": "TGGTGGCTACGACGGGATT"}, "B11": {"name": "CUAACUU (DNA:RNA)", "RNA": "B1 RNA with G25C, C26U, C27A, U28A, C30U, A31U", "DNA 1": "CAATCTGAATTCCGGTCTCCC", "DNA 2": "TGGTGGCTACGACGGGATT"}, "B12": {"name": "CGCGAAG (DNA:RNA)", "RNA": "B2 RNA with U25C, U27C, C28G, G29A", "DNA 1": "CAATCTGAATTCCGGTCTCCC", "DNA 2": "TGGTGGCTACGACGGGATT"}, "B13": {"name": "UAUCCCA (DNA:RNA)", "RNA": "B1 RNA with G25U, C26A, C27U, U28C", "DNA 1": "CAATCTGAATTCCGGTCTCCC", "DNA 2": "TGGTGGCTACGACGGGATT"}, "B14": {"name": "GUAGACG (DNA:RNA)", "RNA": "B1 RNA with C26U, C27A, U28G, C29A, A31G", "DNA 1": "CAATCTGAATTCCGGTCTCCC", "DNA 2": "TGGTGGCTACGACGGGATT"}, "B15": {"name": "UUGUUCA (DNA:RNA)", "RNA": "B1 RNA with G25U, C26U, C27G, C29U", "DNA 1": "CAATCTGAATTCCGGTCTCCC", "DNA 2": "TGGTGGCTACGACGGGATT"}, "B16": {"name": "CCCGUCC (DNA:RNA)", "RNA": "B1 RNA with G25C, U28G, C29U, A31C", "DNA 1": "CAATCTGAATTCCGGTCTCCC", "DNA 2": "TGGTGGCTACGACGGGATT"}, "B17": {"name": "AUCUCUG (DNA:RNA)", "RNA": "B1 RNA with G25A, C26U, C30U, A31G", "DNA 1": "CAATCTGAATTCCGGTCTCCC", "DNA 2": "TGGTGGCTACGACGGGATT"}, "B18": {"name": "GAAAUUG (DNA:RNA)", "RNA": "B1 RNA with C26A, C27A, U28A, C29U, C30U, A31G", "DNA 1": "CAATCTGAATTCCGGTCTCCC", "DNA 2": "TGGTGGCTACGACGGGATT"}, "B19": {"name": "AGUUGUU (DNA:RNA)", "RNA": "B2 RNA with U25A, C28U, A30U, G31U", "DNA 1": "CAATCTGAATTCCGGTCTCCC", "DNA 2": "TGGTGGCTACGACGGGATT"}, "B20": {"name": "GAAAUAC (DNA:RNA)", "RNA": "B1 RNA with C26A, C27A, U28A, C29U, C30A, A31C", "DNA 1": "CAATCTGAATTCCGGTCTCCC", "DNA 2": "TGGTGGCTACGACGGGATT"}},
  "note": "Substitutions are numbered along the chain they refer to; changes in the protein carry UniProt numbers. Some of the results follow.",
  "data": [
    {"biological_target": "T1, RBFOX1 RRM RbFoxmut (Fox-RRM*) (Homo sapiens, UniProt Q9NWB1 109-208, R118D;E147R;N151S;E152T)", "T1 sequence": "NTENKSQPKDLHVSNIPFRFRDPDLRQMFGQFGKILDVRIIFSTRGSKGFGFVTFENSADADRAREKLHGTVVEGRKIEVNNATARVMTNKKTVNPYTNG", "assay": "EMSA; HiTS-Eq, 1 nM pool, 10 min; buffer printed only for the single-RNA assays: 10 mM Tris pH 7.5, 150 mM NaCl, 3.4 mM EDTA, 0.001% NP-40, 30 C", "conditions": "tags: His6 N-terminal (pET28a); label: 5' 32P", "method_in_brief": "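A pool of RNA with 7 randomized nucleotides, 5′-radiolabelled and with DNA-annealed flanks, was equilibrated at 1 nM for 10 min in 50 µL with purified RbFox RRM, wild type or mutant, across increasing protein concentrations. Free RNA was separated by 8% native PAGE, excised, reverse-transcribed, barcoded by PCR and sequenced. Relative association constants were obtained from read-count changes of each RNA species versus the control reaction and normalised to the cognate motif.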", "values": [
      {"binder": "B1", "binding signal": "0.0729 KA relative to UGCAUGU"},
      {"binder": "B2", "binding signal": "0.116 KA relative to UGCAUGU"},
      {"binder": "B3", "binding signal": "0.082 KA relative to UGCAUGU"},
      {"binder": "B4", "binding signal": "0.121 KA relative to UGCAUGU"},
      {"binder": "B5", "binding signal": "0.112 KA relative to UGCAUGU"},
      {"binder": "B6", "binding signal": "0.227 KA relative to UGCAUGU"},
      {"binder": "B7", "binding signal": "0.125 KA relative to UGCAUGU"},
      {"binder": "B8", "binding signal": "0.0824 KA relative to UGCAUGU"},
      {"binder": "B9", "binding signal": "0.0844 KA relative to UGCAUGU"},
      {"binder": "B10", "binding signal": "0.125 KA relative to UGCAUGU"},
      {"binder": "B11", "binding signal": "0.0758 KA relative to UGCAUGU"},
      {"binder": "B12", "binding signal": "0.108 KA relative to UGCAUGU"},
      {"binder": "B13", "binding signal": "0.0578 KA relative to UGCAUGU"},
      {"binder": "B14", "binding signal": "0.0848 KA relative to UGCAUGU"},
      {"binder": "B15", "binding signal": "0.173 KA relative to UGCAUGU"},
      {"binder": "B16", "binding signal": "0.0531 KA relative to UGCAUGU"},
      {"binder": "B17", "binding signal": "0.101 KA relative to UGCAUGU"},
      {"binder": "B18", "binding signal": "0.0736 KA relative to UGCAUGU"},
      {"binder": "B19", "binding signal": "0.111 KA relative to UGCAUGU"},
      {"binder": "B20", "binding signal": "0.0758 KA relative to UGCAUGU"}
    ]}
  ]
}
